Experimental data reported in PubChem BioAssay AID1645882 (National Center for Advancing Translational Sciences (NCATS), 2021).
Among all 16,000 compounds or so, about 120 (0.75%) were called active. About 4% were inconclusive and are not listed. Calls come from the whole dose curve; as a rule, active = well fitted inhibition curve with a large enough effect; inconclusive = small, poorly fitted or top-dose-only effect; inactive = no such curve, though single readings can be large or run the other way. The list shows a part of the results.

molecular target: Rap guanine nucleotide exchange factor 3 (Homo sapiens) (UniProt O95398); experiment: Validation qHTS for antagonist of cAMP-regulated guanine nucleotide exchange factor 3 (EPAC1); conditions: EPAC1 Rap1B-BODIPY-GDP exchange, fluorescence; series mostly up to 150 µM; activity change, negative = inhibition: at the top concentration;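 note: plate controls were DMSO for no effect and ATA control for full effect; nearly all actives have a fitted effect of over 75% in size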
Method in brief: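 EPAC1 (100 nM) mixed with 250 nM RAP1B-BODIPY-GDP and 50 uM GDP; compounds in concentration series, 5 min at room temperature. Fluorescence (ex 480/em 540 nm) read every 5 min for 30 min; normalized to ATA control and DMSO.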

Chain of UniProt O95398 (O95398 whole entry, looked up): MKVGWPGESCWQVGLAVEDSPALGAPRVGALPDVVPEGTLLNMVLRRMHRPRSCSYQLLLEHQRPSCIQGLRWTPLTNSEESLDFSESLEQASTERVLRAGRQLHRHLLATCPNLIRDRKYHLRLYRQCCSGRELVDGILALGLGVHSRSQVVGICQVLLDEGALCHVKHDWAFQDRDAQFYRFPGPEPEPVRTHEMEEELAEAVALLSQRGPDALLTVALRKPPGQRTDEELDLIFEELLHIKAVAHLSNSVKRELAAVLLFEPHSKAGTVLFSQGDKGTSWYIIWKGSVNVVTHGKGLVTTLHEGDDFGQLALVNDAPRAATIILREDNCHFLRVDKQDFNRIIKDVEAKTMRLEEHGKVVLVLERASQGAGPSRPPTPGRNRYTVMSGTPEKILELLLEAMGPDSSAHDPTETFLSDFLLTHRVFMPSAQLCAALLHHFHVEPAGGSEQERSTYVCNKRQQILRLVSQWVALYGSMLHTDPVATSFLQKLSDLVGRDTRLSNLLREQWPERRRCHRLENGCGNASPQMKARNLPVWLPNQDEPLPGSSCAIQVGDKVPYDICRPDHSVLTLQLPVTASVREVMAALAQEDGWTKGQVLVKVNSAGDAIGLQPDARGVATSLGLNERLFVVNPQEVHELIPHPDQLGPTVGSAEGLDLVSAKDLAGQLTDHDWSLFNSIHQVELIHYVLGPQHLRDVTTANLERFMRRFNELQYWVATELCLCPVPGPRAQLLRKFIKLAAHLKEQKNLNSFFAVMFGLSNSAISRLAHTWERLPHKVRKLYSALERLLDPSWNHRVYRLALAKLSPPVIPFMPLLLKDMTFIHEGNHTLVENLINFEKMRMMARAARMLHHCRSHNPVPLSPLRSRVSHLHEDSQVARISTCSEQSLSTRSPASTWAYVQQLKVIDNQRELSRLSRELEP

Activity change, negative = inhibition, inactive:
CCN1CCCC1CNC(=O)c1cc(S(N)(=O)=O)ccc1OC (stereo unspecified)
C[N+]1(CC(=O)c2ccccc2)CCc2ccccc2C1 (stereo unspecified) 14.5%
CC(=O)OC1CCC2(C)C(CCC3(C)C2C(=O)C=C2C4CC(C)(C(=O)OCCN5CCCCC5)CCC4(C)CCC23C)C1(C)C (stereo unspecified) 7.76%
COc1ccc(-c2ccc3cc(C(=O)O)ccc3c2)cc1C12CC3CC(CC(C3)C1)C2 16.6%
O=C(O)/C=C/C(=O)Nc1ccc(S(=O)(=O)Nc2nccs2)cc1 11%
COc1c2c(nc3occc13)C(CC=C(C)C)(OC)C(=O)C=C2 (stereo unspecified) 15.2%
COc1ccc(-n2c(=O)cnc3cnc(N4CCN(C)CC4)nc32)cc1 2.73%
C=C[C@@H]1c2ccccc2N(S(=O)(=O)c2ccc(C)cc2)[C@H](c2ccc(OC(C)=O)cc2)C1(C#N)C#N 10.2%
CCCCCC(=O)O[C@H](CC(=O)O)C[N+](C)(C)C -6.89%
Cc1cccc(-c2cc(=O)c3cc(Br)ccc3o2)c1 6.76%
O=S(=O)(O)c1ccc(Nc2ncnc3c2ncn3[C@@H]2O[C@H](CO)[C@@H](O)[C@H]2O)cc1 35.3%
O=c1[nH]c(=O)n([C@H]2C[C@H](O)[C@@H](CO)O2)cc1I 12.7% [at 75.8 µM]
CCCCc1cc2c(=O)c(C(=O)OC)c[nH]c2cc1OCc1ccccc1 -11.2%
CCCCC/C=C\C/C=C\CCCCCCCC(=O)O 21.6% [at 15.3 µM]
Cc1cccc(N(C)C(=S)Oc2ccc3ccccc3c2)c1
CC1(C)SC2C(NC(=O)C(N)c3ccccc3)C(=O)N2C1C(=O)O (stereo unspecified) -15.7%
CC(C)N1C[C@@H](NCc2ccccc2O)C[C@H]1C(=O)N1CCN(c2cccc(C(F)(F)F)c2)CC1 14.9%
C=CCNC1=C2C[C@@H](C)C[C@H](OC)[C@H](O)[C@@H](C)/C=C(\C)[C@H](OC(N)=O)[C@@H](OC)/C=C\C=C(/C)C(=O)NC(=CC1=O)C2=O -1.13%
Cc1cc(=O)cc2oc3cc(N)c(-c4c(C)cc(O)cc4O)c(C)c3nc1-2 -25.8%
O=S1(=O)CCO[C@H]2Cc3ccccc3[C@H]2N1Cc1cccc(F)c1 8.13%
N[C@@H](COP(=O)(O)O)C(=O)O
COc1cccc(Cn2c(=O)cnc3cnc(OC)nc32)c1 5.31%
O=C(O)c1cccnc1 11.7%
CN1CCN(C2=Nc3ccccc3Cc3ccccc32)CC1 21%
CC(C)(C)c1nnc(NS(=O)(=O)c2ccccc2)s1 18%
CCOC(=O)C[n+]1cccc(Br)c1 10.8%
Cn1c(=O)c(-c2cc(F)cc(F)c2)nc2cncnc21 16%
Cc1cc(=O)c(C(=O)N[C@@H](C(=O)N[C@@H]2C(=O)N3C(C(=O)O)=C(CSc4nnnn4C)CS[C@H]23)c2ccc(O)cc2)c[nH]1 -2.71%
CC(C)[C@H]1COCCS(=O)(=O)N1Cc1cccc(Cl)c1 -12.5%
CCCCc1oc2ccccc2c1C(=O)c1cc(I)c(OCCN(CC)CC)c(I)c1
CN(Cc1cnc2nc(N)nc(N)c2n1)c1ccc(C(=O)NC(CCC(=O)O)C(=O)O)cc1 (stereo unspecified) 13.6%
CC1=CC(=O)OC1Cc1ccc2ccccc2n1 (stereo unspecified) 1.86%
Cc1cnc(CNc2cc(-c3ccccc3C)ncn2)cn1 3.14%
Cn1cccc1C(=O)N1CCC2(CCN(Cc3ccc(C#N)cc3)CC2)CC1 -1.33%
COCC(=O)N1CCC2(CC1)CN(c1cccc(-c3ccccc3)c1)C2 27.6%
c1cncc(CNc2ccnc(-c3cccnc3)n2)c1 19%
COc1ncc2nc(CCc3ccccc3)c(=O)n(C3CC3)c2n1 6.78%
Cc1ccccc1-c1ccc2ncnc(N(C)Cc3ccco3)c2c1 -6.84%
CC(=O)OCC(=O)[C@@]1(O)CCC2C3CCC4=CC(=O)CC[C@@]4(C)[C@]3(F)C(O)C[C@]21C (stereo partly specified) 9.82%
C/C(Nc1ccc2oc(=O)ccc2c1)=C1/C(=O)CC2[C@@H]1C2(C)C (stereo partly specified) 15.1%
COc1cc(=O)n2c(c1C(=O)NC(C)c1ccco1)CCN(Cc1cc3ccccc3o1)CC2 (stereo unspecified) 11.9%
O=C1N=C(O)CN1/N=C/c1ccc(-c2ccc([N+](=O)[O-])cc2)o1
Cn1c(=O)c(-c2ccccc2)nc2cnc(N3CCNCC3)nc21 17.2%
COc1cc(=O)n2c(c1C(=O)N(C)Cc1cscn1)CCN(C(=O)c1ccc(C)c(C)c1)CC2 2.54%
Cc1[nH]c(C)c(Cl)c(=O)c1Cl 9.53%
CN1CCC2(CC1)CCN(C(=O)c1cc(C(F)(F)F)cc(C(F)(F)F)c1)CC2 0.273%
CNCC(=O)N[C@@H](CCCN=C(N)N)C(=O)N[C@H](C(=O)N[C@@H](Cc1ccc(O)cc1)C(=O)N[C@H](C(=O)N[C@@H](Cc1cnc[nH]1)C(=O)N1CCC[C@H]1C(=O)N[C@@H](C)C(=O)O)C(C)C)C(C)C 10.4%
CC(C)CN1CC[C@@]2(CCCN(C(=O)c3ccco3)C2)C1 16.4%
CC1=CCc2c(cc3oc(C)cc(=O)c3c2O)OC1 -13.5%
CC1(C)O[C@@H]2C[C@H]3[C@@H]4C[C@H](F)C5=CC(=O)CC[C@]5(C)[C@H]4[C@@H](O)C[C@]3(C)[C@]2(C(=O)CO)O1 -7.45% [at 75.8 µM]
CC(=O)c1ccc(-c2cc(F)cc3c2OC(CNC(=O)c2ccc[n+]([O-])c2)C3)s1 (stereo unspecified) 6.16%
O=C(c1noc2c1CCCC2)N1CCOc2ccc(CN3CCN(c4ccccn4)CC3)cc2C1 15.3%
CCC1CN(CCNC(=O)c2ccnc(Cl)c2)Cc2cc(OC)ccc2O1 (stereo unspecified) -1.87%
C[C@@H]1CN(Cc2ccc3c(c2)CN(C(=O)CN2CCOc4ccccc4C2)CCO3)C[C@H](C)O1 7.62%
O[N+]1=CC=CCC1=S.On1ccccc1=S.[Zn] -7.78%
CC1(C)CC2C1CCC1(C)OC1CCC2(C)O (stereo unspecified) 4.64%
Cc1ccc2cc(CNC(C)CO)c(N3CCC(O)CC3)nc2c1 (stereo unspecified) 17.1%
CC(=O)O[C@]1(C)CC[C@]23CC1C(C)(C)C2CC[C@@H]3C (stereo partly specified) 24.4%
CN(C)c1ccc(/C=C/c2ccnc3ccccc23)cc1[N+](=O)[O-] -3.13%
CN(C)c1ncc2nc(-c3cn(C)c4ccccc34)c(=O)n(C[C@H]3CCCO3)c2n1 17.1%
Cn1cccc1C(=O)N1CCC[C@@]2(CCN(c3ncccn3)C2)C1 15.2%
CN1CC[C@@]2(CCCN(C(=O)c3cccn3C)C2)C1 18.4%
OCc1cc([C@@H](O)CNCCCCCCOCCCCc2ccccc2)ccc1O 3.19%
COC(=O)N1CCC2(CCCN(c3cccc(-c4ccccc4)c3)C2)CC1 -7.76%
CC(C)(Oc1ccc(C2CCCc3ccccc32)cc1)C(=O)O (stereo unspecified) 3.43%
COc1cccc(-c2cncnc2NCc2cccnc2)c1 9.93%
COc1cccc(-c2ccc(O)c(CNC(c3ccccc3)c3ccc(Cl)cc3)c2)n1 (stereo unspecified) 1.86%
COc1cc2nc(N(C)C)c(CNCc3nonc3C)cc2c(OC)c1OC 4.14%
FC(F)(F)c1cc(CN2CC3(CCNCC3)C2)cc(C(F)(F)F)c1 -0.358%
O=c1c(-c2cccc(F)c2)nc2cncnc2n1Cc1ccc(F)cc1 -1.33%
NNC(=O)c1ccncc1
CN(C(=O)CCCOc1ccc2[nH]c(=O)ccc2c1)C1CCCCC1
Nc1ncnc2c1ncn2[C@@H]1O[C@H](COP(=O)(O)OP(=O)(O)OC[C@H]2OC(O)[C@H](O)[C@@H]2O)[C@@H](O)[C@H]1O (stereo partly specified) 21.2%
N#Cc1ccc(CN2CCC3(CC2)CCN(C(=O)c2cccc(F)c2)CC3)cc1 15.2%
O=C(c1cccc(F)c1)N1CCC2(CCCN(c3ccc(-c4ccccc4)cc3)C2)CC1 8.17%
Cc1nc(CC(=O)N2CCC(n3c(C4CCC4)nc4cccnc43)CC2)cs1 21.8%
O=C(O)c1ccc2nc(-c3ccccc3)c(-c3ccccc3)nc2c1 26.4%
COc1cccc(CNC(=O)c2c(OC)cc(=O)n3c2CCN(C(=O)c2ccoc2C)CC3)c1 -0.197%
c1ccc(-c2cccc(N3CC4(CCNCC4)C3)c2)cc1 8.19%
COc1ccc(-n2c(=O)c(-c3cn(C)c4ccccc34)nc3cnc(OC)nc32)cc1 6.05%
CN(C)c1ccc(-c2nc(NC3CCNCC3)c3ccccc3n2)cc1 11.8%
N#CCCn1c(=O)c(-c2ccc(Cl)cc2)nc2cnc(OCc3ccccc3)nc21 19.3%
C=C1c2c(Cl)ccc(O)c2C(O)=C2C(=O)[C@]3(O)C(O)=C(C(N)=O)C(=O)[C@@H](N(C)C)[C@@H]3[C@@H](O)[C@H]12 8.85% [at 75.8 µM]
Clc1ccc2nsnc2c1NC1=NCCN1
CC(C)C1=CC2=CC[C@@H]3[C@](C)(CO)CCC[C@]3(C)C2CC1 (stereo partly specified) -22.9%
O=[N+]([O-])c1c(Cl)cccc1-c1c[nH]cc1Cl -2.69%
N#Cc1ccccc1-c1ccc2ncnc(NCc3ccccc3)c2c1 2.11%
Cc1cc2cc3c(C)cc(=O)oc3c(C)c2o1
CC(=O)Nc1c(I)cc(I)c(C(=O)O)c1I 18.6%
CN1C(C(=O)Nc2ccccn2)C(=O)c2sc(Cl)cc2S1(=O)=O (stereo unspecified) 3.21%
CO/N=C(/C(=O)N[C@@H]1C(=O)N2C(C(=O)O)=C(COC(N)=O)CS[C@H]12)c1ccco1
CC(=O)Nc1nnc(S(N)(=O)=O)s1
COc1cccc(C(=O)NC(C)c2nnc3n2CCN(CC=C(C)C)CC3)c1 (stereo unspecified) 2.04%
COC1=CC(=O)C(O)=C/C1=C\C=C\c1ccccc1 -14.6%
CC(C)Oc1ccc2c(=O)c(-c3ccccc3)coc2c1
O=C(Oc1ccccc1)N1CCC2(CC1)CN(c1ccccc1)C2 2.94%
C[N+](C)(C)CC(O)CC(=O)[O-] (stereo unspecified) 24.6%
CCNc1ncc2nc(-c3ccc(F)cc3)c(=O)n(CCC#N)c2n1 25.9%
NC(N)=N[C@@H](CCC(=O)O)C(=O)O 9.13% [at 75.8 µM]
N#C/C(=C1/SC[C@@H](c2ccc(Cl)cc2Cl)S1)n1ccnc1
COc1cc([C@H]2Oc3cc([C@H]4Oc5cc(O)cc(O)c5C(=O)[C@@H]4O)ccc3O[C@@H]2CO)ccc1O 21.7%
